{"source": "the supplement of paper PMC8728848", "binders": {"B1": {"name": "ZG-16 (Homo sapiens), O60844 (protein)", "chain": "IQARSSSYSGEYGSGGGKRFSHSGNQLDGPITALRVRVNTYYIVGLQVRYGKVWSDYVGGRNGDLEEIFLHPGESVIQVSGKYKWYLKKLVFVTDKGRYLSFGKDSGTSFNAVPLHPNTVLRFISGRSGSLIDAIGLHWDVYPTSCSRCSRGSDDDDKAEPRGPTIKPCPPCKCPAPNLLGGPSVFIFPPKIKDVLMISLSPIVTCVVVDVSEDDPDVQISWFVNNVEVHTAQTQTHREDYNSTLRVVSALPIQHQDWMSGKEFKCKVNNKDLPAPIERTISKPKGSVRAPQVYVLPPPEEEMTKKQVTLTCMVTDFMPEDIYVEWTNNGKTELNYKNTEPVLDSDGSYFMYSKLRVEKKNWVERNSYSCSVVHEGLHNHHTTKSFSRTPGKRTYHHHHHHARKLTR"}}, "experiment_in_all_cases": "glycan array binding signal (z-score within array); higher = stronger binding", "details_in_all_cases": "glycan notation: IUPAC condensed, linker removed", "key": {"Gal(a1-3)Gal(b1-3)GlcNAc": {"biological_target": "Gal(a1-3)Gal(b1-3)GlcNAc", "procedure,_shortened": "(§1)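 Glycan array data were curated from 3228 arrays in the Consortium for Functional Glycomics database and kept only where the protein sequence was available. Glycan names were converted to IUPAC-condensed notation, and columns mapping to the same glycan were averaged. The binding signal is a within-array Z-score, averaged across arrays of the same protein sequence at different concentrations or buffers and across linkers. Negative Z-scores can be read as non-binding.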"}, "[1]": {"biological_target": "Gal(a1-3)Gal(b1-3)GlcNAc(b1-2)Man(a1-3)[Gal(a1-3)Gal(b1-3)GlcNAc(b1-2)Man(a1-6)]Man(b1-4)GlcNAc(b1-4)GlcNAc", "procedure,_shortened": "as §1"}, "[2]": {"biological_target": "Gal(a1-3)Gal(b1-3)[Fuc(a1-4)]GlcNAc(b1-2)Man(a1-3)[Gal(a1-3)Gal(b1-3)[Fuc(a1-4)]GlcNAc(b1-2)Man(a1-6)]Man(b1-4)GlcNAc(b1-4)GlcNAc", "procedure,_shortened": "as §1"}, "Gal(a1-3)Gal(b1-4)Glc": {"biological_target": "Gal(a1-3)Gal(b1-4)Glc", "procedure,_shortened": "as §1"}, "Gal(a1-3)Gal(b1-4)GlcNAc": {"biological_target": "Gal(a1-3)Gal(b1-4)GlcNAc", "procedure,_shortened": "as §1"}, "[3]": {"biological_target": "Gal(a1-3)Gal(b1-4)GlcNAc(b1-3)GalNAc", "procedure,_shortened": "as §1"}, "[4]": {"biological_target": "Gal(a1-3)Gal(b1-4)[Fuc(a1-3)]GlcNAc", "procedure,_shortened": "as §1"}, "[5]": {"biological_target": "Gal(a1-3)Gal(b1-4)[Fuc(a1-3)]GlcNAc(b1-2)Man(a1-3)[Gal(a1-3)Gal(b1-4)[Fuc(a1-3)]GlcNAc(b1-2)Man(a1-6)]Man(b1-4)GlcNAc(b1-4)GlcNAc", "procedure,_shortened": "as §1"}, "Gal(a1-3)GalNAc": {"biological_target": "Gal(a1-3)GalNAc", "procedure,_shortened": "as §1"}, "[6]": {"biological_target": "Gal(a1-3)[Gal(a1-4)]Gal(b1-4)GlcNAc", "procedure,_shortened": "as §1"}, "[7]": {"biological_target": "Gal(a1-4)Gal(b1-3)GlcNAc(b1-2)Man(a1-3)[Gal(a1-4)Gal(b1-3)GlcNAc(b1-2)Man(a1-6)]Man(b1-4)GlcNAc(b1-4)GlcNAc", "procedure,_shortened": "as §1"}, "Gal(a1-4)Gal(b1-4)Glc": {"biological_target": "Gal(a1-4)Gal(b1-4)Glc", "procedure,_shortened": "as §1"}, "Gal(a1-4)Gal(b1-4)GlcNAc": {"biological_target": "Gal(a1-4)Gal(b1-4)GlcNAc", "procedure,_shortened": "as §1"}, "[8]": {"biological_target": "Gal(a1-4)Gal(b1-4)GlcNAc(b1-2)Man(a1-3)[Gal(a1-4)Gal(b1-4)GlcNAc(b1-2)Man(a1-6)]Man(b1-4)GlcNAc(b1-4)GlcNAc", "procedure,_shortened": "as §1"}, "[9]": {"biological_target": "Gal(a1-4)Gal(b1-4)GlcNAc(b1-3)Gal(b1-4)Glc", "procedure,_shortened": "as §1"}, "Gal(a1-4)GlcNAc": {"biological_target": "Gal(a1-4)GlcNAc", "procedure,_shortened": "as §1"}, "Gal(a1-6)Glc": {"biological_target": "Gal(a1-6)Glc", "procedure,_shortened": "as §1"}, "Gal(b1-2)Gal": {"biological_target": "Gal(b1-2)Gal", "procedure,_shortened": "as §1"}, "Gal(b1-3)Gal": {"biological_target": "Gal(b1-3)Gal", "procedure,_shortened": "as §1"}, "Gal(b1-3)Gal(b1-4)GlcNAc": {"biological_target": "Gal(b1-3)Gal(b1-4)GlcNAc", "procedure,_shortened": "as §1"}, "[10]": {"biological_target": "Gal(b1-3)Gal(b1-4)GlcNAc(b1-2)Man(a1-3)[Gal(b1-3)Gal(b1-4)GlcNAc(b1-2)Man(a1-6)]Man(b1-4)GlcNAc(b1-4)GlcNAc", "procedure,_shortened": "as §1"}, "Gal(b1-3)GalNAc": {"biological_target": "Gal(b1-3)GalNAc", "procedure,_shortened": "as §1"}, "[11]": {"biological_target": "Gal(b1-3)GalNAc(a1-3)[Fuc(a1-2)]Gal(b1-4)Glc", "procedure,_shortened": "as §1"}, "[12]": {"biological_target": "Gal(b1-3)GalNAc(a1-3)[Fuc(a1-2)]Gal(b1-4)GlcNAc", "procedure,_shortened": "as §1"}, "[13]": {"biological_target": "Gal(b1-3)GalNAc(b1-3)Gal(a1-4)Gal(b1-4)Glc", "procedure,_shortened": "as §1"}, "[14]": {"biological_target": "Gal(b1-3)GalNAc(b1-4)Gal(b1-4)Glc", "procedure,_shortened": "as §1"}, "[15]": {"biological_target": "Gal(b1-3)GalNAc(b1-4)[Neu5Ac(a2-3)]Gal(b1-4)Glc", "procedure,_shortened": "as §1"}, "Gal(b1-3)GlcNAc": {"biological_target": "Gal(b1-3)GlcNAc", "procedure,_shortened": "as §1"}, "[16]": {"biological_target": "Gal(b1-3)GlcNAc(a1-6)Gal(b1-4)GlcNAc", "procedure,_shortened": "as §1"}, "[17]": {"biological_target": "Gal(b1-3)GlcNAc(b1-2)Man(a1-3)[Gal(b1-3)GlcNAc(b1-2)Man(a1-6)]Man(b1-4)GlcNAc(b1-4)GlcNAc", "procedure,_shortened": "as §1"}, "[18]": {"biological_target": "Gal(b1-3)GlcNAc(b1-2)Man(a1-3)[Gal(b1-3)GlcNAc(b1-2)Man(a1-6)]Man(b1-4)GlcNAc(b1-4)[Fuc(a1-6)]GlcNAc", "procedure,_shortened": "as §1"}, "[19]": {"biological_target": "Gal(b1-3)GlcNAc(b1-3)Gal(b1-3)GlcNAc", "procedure,_shortened": "as §1"}, "[20]": {"biological_target": "Gal(b1-3)GlcNAc(b1-3)Gal(b1-4)Glc", "procedure,_shortened": "as §1"}, "[21]": {"biological_target": "Gal(b1-3)GlcNAc(b1-3)Gal(b1-4)GlcNAc", "procedure,_shortened": "as §1"}, "[22]": {"biological_target": "Gal(b1-3)GlcNAc(b1-3)Gal(b1-4)GlcNAc(b1-6)[Gal(b1-3)GlcNAc(b1-3)]Gal(b1-4)Glc", "procedure,_shortened": "as §1"}, "[23]": {"biological_target": "Gal(b1-3)GlcNAc(b1-3)Gal(b1-4)[Fuc(a1-3)]GlcNAc(b1-6)[Gal(b1-3)GlcNAc(b1-3)]Gal(b1-4)Glc", "procedure,_shortened": "as §1"}, "[24]": {"biological_target": "Gal(b1-3)GlcNAc(b1-3)GalNAc", "procedure,_shortened": "as §1"}, "[25]": {"biological_target": "Gal(b1-3)GlcNAc(b1-6)Gal(b1-4)GlcNAc", "procedure,_shortened": "as §1"}}, "note": "This is one part of the list."}
{"binder": "B1", "values": [{"measurement": "glycan array binding signal (z-score)", "setting": "Gal(a1-3)Gal(b1-3)GlcNAc", "result": -0.051}, {"measurement": "glycan array binding signal (z-score)", "setting": "[1]", "result": -0.212}, {"measurement": "glycan array binding signal (z-score)", "setting": "[2]", "result": -0.184}, {"measurement": "glycan array binding signal (z-score)", "setting": "Gal(a1-3)Gal(b1-4)Glc", "result": -0.246}, {"measurement": "glycan array binding signal (z-score)", "setting": "Gal(a1-3)Gal(b1-4)GlcNAc", "result": -0.227}, {"measurement": "glycan array binding signal (z-score)", "setting": "[3]", "result": -0.189}, {"measurement": "glycan array binding signal (z-score)", "setting": "[4]", "result": -0.216}, {"measurement": "glycan array binding signal (z-score)", "setting": "[5]", "result": -0.158}, {"measurement": "glycan array binding signal (z-score)", "setting": "Gal(a1-3)GalNAc", "result": -0.141}, {"measurement": "glycan array binding signal (z-score)", "setting": "[6]", "result": -0.123}, {"measurement": "glycan array binding signal (z-score)", "setting": "[7]", "result": -0.155}, {"measurement": "glycan array binding signal (z-score)", "setting": "Gal(a1-4)Gal(b1-4)Glc", "result": -0.135}, {"measurement": "glycan array binding signal (z-score)", "setting": "Gal(a1-4)Gal(b1-4)GlcNAc", "result": -0.196}, {"measurement": "glycan array binding signal (z-score)", "setting": "[8]", "result": -0.205}, {"measurement": "glycan array binding signal (z-score)", "setting": "[9]", "result": -0.224}, {"measurement": "glycan array binding signal (z-score)", "setting": "Gal(a1-4)GlcNAc", "result": -0.193}, {"measurement": "glycan array binding signal (z-score)", "setting": "Gal(a1-6)Glc", "result": -0.107}, {"measurement": "glycan array binding signal (z-score)", "setting": "Gal(b1-2)Gal", "result": -0.2}, {"measurement": "glycan array binding signal (z-score)", "setting": "Gal(b1-3)Gal", "result": -0.222}, {"measurement": "glycan array binding signal (z-score)", "setting": "Gal(b1-3)Gal(b1-4)GlcNAc", "result": -0.231}, {"measurement": "glycan array binding signal (z-score)", "setting": "[10]", "result": -0.2}, {"measurement": "glycan array binding signal (z-score)", "setting": "Gal(b1-3)GalNAc", "result": -0.173}, {"measurement": "glycan array binding signal (z-score)", "setting": "[11]", "result": -0.193}, {"measurement": "glycan array binding signal (z-score)", "setting": "[12]", "result": -0.202}, {"measurement": "glycan array binding signal (z-score)", "setting": "[13]", "result": -0.161}, {"measurement": "glycan array binding signal (z-score)", "setting": "[14]", "result": -0.193}, {"measurement": "glycan array binding signal (z-score)", "setting": "[15]", "result": -0.198}, {"measurement": "glycan array binding signal (z-score)", "setting": "Gal(b1-3)GlcNAc", "result": 0.526}, {"measurement": "glycan array binding signal (z-score)", "setting": "[16]", "result": -0.161}, {"measurement": "glycan array binding signal (z-score)", "setting": "[17]", "result": -0.189}, {"measurement": "glycan array binding signal (z-score)", "setting": "[18]", "result": -0.177}, {"measurement": "glycan array binding signal (z-score)", "setting": "[19]", "result": -0.209}, {"measurement": "glycan array binding signal (z-score)", "setting": "[20]", "result": -0.226}, {"measurement": "glycan array binding signal (z-score)", "setting": "[21]", "result": -0.194}, {"measurement": "glycan array binding signal (z-score)", "setting": "[22]", "result": -0.221}, {"measurement": "glycan array binding signal (z-score)", "setting": "[23]", "result": -0.161}, {"measurement": "glycan array binding signal (z-score)", "setting": "[24]", "result": -0.187}, {"measurement": "glycan array binding signal (z-score)", "setting": "[25]", "result": -0.214}]}
